# Measured values taken from the supplement of paper PMC11417369.
# This is one part of the list.
# Test system: PfAP2-HC AP2 domain (GST-tagged)
# Assay: gcPBM binding intensity (ln(normalized median fluorescence intensity)); higher = stronger DNA binding
# In short: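 GST-tagged P. falciparum DNA-binding domains produced in E. coli were incubated for 1 h on an Agilent 4 × 180k array of primer-extended double-stranded 36-bp intergenic genomic probes with negative controls. Binding intensity is the highest Masliner-normalised natural-log median intensity across replicate spots of either probe orientation, with bound protein detected by Alexa488 anti-GST antibody at 488 nm.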
row,Sequence,gcPBM binding intensity (ln)
1,TATTATGTATGTATATGTACGTATCTTATTTTATTT [XGTACX_site5008],9.94
2,AAATTATTATATATATGTACGTATAATGTATTTTGT [XGTACX_site2903],9.8
3,AAATATAGAATACATGTGCACATAATATATATATAT,10
4,AAATGTAAATTTATCCGTACATATATATATTTATAT [XGTACX_site7024],9.73
5,AAAAAAAAAAAAATATATATATATATATATATATAT [GTGCAC_negctrl_site212],9.44
6,AAAAAAAAAAATTAAAGTACAAAAATATTAAAAATA [XGTACX_site6517],9.62
7,TGCATTTATATCTTCACACATATATATATATATATA [CACACA_site4516],9.66
8,ATTAAAAATTCAATTGCACACGCACATATTTTAATA [CACACA_site8618],9.95
9,ATGTAATAAAATAATTGTACAATGTAACTAATTTTT [XGTACX_site2871],9.92
10,ATATGTATATATACATGTACATATTTTTCCTTTCTT [XGTACX_site149],9.65
11,ATAAACATGGAAATGTATTAAAAGCAAGTATATAAA [XGTACX_negctrl_site516],9.93
12,TGTTGTTACAGATATACACACATATATATATTATAT [CACACA_site5342],9.96
13,TTGGGTGCATATATTTGTACACATTATTTCTATTTT [XGTACX_site3688],9.69
14,TAAATTATAACGTGCACACATATTTAAAATGAAATG [CACACA_site2820],9.73
15,AAAAAAAATTTCTTCACACATAAATAAATAAATAAA [CACACA_site4841],9.36
16,TTTTTTTTTTTTTCAAGTACATATATATATATATAA [XGTACX_site2098],9.18
17,TTTTTATATGTTAAGTGTACGTTTACATTTTATACT [XGTACX_site3485],9.75
18,ACATAAATAAATTAATGTACATATATATTTGTATAT [XGTACX_site3160],9.68
19,TATATATATATATATACACACACACCCATATATATA [CACACA_site8812],10.3
20,TTTGTATAATACATGTGTACGTATTTTTATATAAAT [XGTACX_site8656],9.73
21,TTATCATTATATAGTTGTACATATTTATTTATAAAA [XGTACX_site2310],9.49
22,AGAACTAAAAGAACATGTACATAAATTCTAAATAAT [XGTACX_site4084],9.71
23,ATGATACTAAAAAATTGTACATATAACAAAAGGTAT [XGTACX_site2527],9.76

row,Sequence,gcPBM binding intensity (ln)
1,CATATATTTTGAAACACACACATATATAATATACAT [CACACA_site1158],10.4
2,ATAACAAAATGAAGAGTGCATTACCAAGTGGGTAAA [GTGCAC_site9450],9.89
3,ATATTTAAGGCGTGTATGCACACGACTATTCCGTAT [CACACA_site1080],9.79
4,TTAATTTGTTCTTACACACACATATAAATATATTTA [CACACA_site6676],9.92
5,TATTTTGTTTTAAAAGTACACACTTTTAATTAGATT [CACACA_site1180],9.51
6,AATATATATACTATAACACACATACACCCAAAAAAA [CACACA_site4453],10.2
7,TTATATGGATATACAGTGCATATATACATATAAGTG,9.69
8,CATACCTTTTAATGTACACACATTTCTTTTTTGTTA [CACACA_site892],10
9,AAAAAAAAAAGAAACACACACATATATATATAGAAT [CACACA_site1777],10.3
10,ATGTATTAAAATTTATGTACTTATATATAAATATAT [XGTACX_site1025],9.62
11,TATATGTATTTGTATACACACAAATGTATATATTTA [CACACA_site1265],9.73
12,TATAAACATAATATTTAACACACATGAAGATGTATA [CACACA_site8252],9.73
13,ATTATTATATATGTATGTACTTATATAATATATATA [XGTACX_site5198],9.46
14,TATATATTGTTATATACACACATGTATTTAAAAAAT [CACACA_site5737],9.65
15,TTAACAAAACATAAGGTGCTTAAAATTTTATATCAC [GTGCAC_site9839],9.53
16,TCTGTTAAACAAAAAAGTACTAAAATAATGTAAAAT [XGTACX_site6826],9.58
17,TACCTATATAGACACACACACATATATTTATTTATA [CACACA_site6728],10.4
18,ATATGTACAAGTGTTTATGCTGAACGGAAATCCTGT [CACACA_negctrl_site1372],9.69
19,CGCACAGACGGACACACACACACATATATATATATA [CACACA_site5249],11.1
20,TTTTTTTTTATATAAAAAAAAATTTTTATTATTTTA [GTGCAC_negctrl_site347],9.24
21,ATAATTGTCCATTTTTTCTTTTTTTTTTTCTTTTTA [CACACA_negctrl_site928],9.68
22,TTCTCCTAATAGTTAGTGCACTACATAACTAAGAAA,9.48
